About 5,800 (2.1%) of roughly 270,000 compounds were called active. The inconclusive results got no clear call from the source; some entries with a clear call stand among them for comparison. Calls come from the whole dose curve; as a rule, active = well fitted inhibition curve with a large enough effect; inconclusive = small, poorly fitted or top-dose-only effect; inactive = flat fitted curve, though single readings scatter. Potencies beside an inconclusive call are fits to weak or partial responses and may not hold up.
Target: Microtubule-associated protein tau (Homo sapiens) (UniProt P10636)
Experiment: qHTS for Inhibitors of Tau Fibril Formation, Thioflavin T Binding; note: nearly all actives have a fitted effect of over 55% in size
Conditions: recombinant tau K18 P301L, heparin-induced fibrillization, ThT fluorescence; series mostly up to 57.4 µM
Procedure, shortened: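 Using a mix of unlabeled (15 uM) and Alexa 594-labeled (0.24 uM) tau K18 P301L, heparin-triggered fibrillization over 6 hr at 37 C was scored by ThT fluorescence.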
% is set by controls: 0 for no effect and ±100 for the full control effect; potency is the fitted concentration of half-maximal effect; tags give direction and shape of the fitted curve.

Chain of UniProt P10636 (P10636 whole entry, looked up): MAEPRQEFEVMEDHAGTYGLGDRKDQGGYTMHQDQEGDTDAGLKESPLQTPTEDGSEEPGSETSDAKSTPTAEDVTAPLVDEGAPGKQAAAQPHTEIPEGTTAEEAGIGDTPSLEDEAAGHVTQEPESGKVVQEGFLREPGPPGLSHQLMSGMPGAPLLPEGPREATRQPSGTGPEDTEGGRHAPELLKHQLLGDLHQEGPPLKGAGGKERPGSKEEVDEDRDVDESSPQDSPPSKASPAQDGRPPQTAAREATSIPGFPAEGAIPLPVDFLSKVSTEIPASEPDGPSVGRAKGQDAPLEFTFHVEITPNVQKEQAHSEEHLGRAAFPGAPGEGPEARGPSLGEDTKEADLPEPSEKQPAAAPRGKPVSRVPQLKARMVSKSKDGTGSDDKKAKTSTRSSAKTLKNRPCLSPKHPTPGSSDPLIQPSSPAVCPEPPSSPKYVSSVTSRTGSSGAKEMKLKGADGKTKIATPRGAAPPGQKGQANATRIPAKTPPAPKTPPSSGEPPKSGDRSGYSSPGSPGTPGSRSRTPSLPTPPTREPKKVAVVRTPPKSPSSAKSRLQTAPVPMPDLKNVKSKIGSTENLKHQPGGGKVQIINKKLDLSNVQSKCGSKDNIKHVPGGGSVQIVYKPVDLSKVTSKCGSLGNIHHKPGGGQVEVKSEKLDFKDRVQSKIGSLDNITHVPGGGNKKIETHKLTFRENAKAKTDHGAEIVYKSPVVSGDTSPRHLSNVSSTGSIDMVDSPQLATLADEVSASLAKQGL

SMILES	Potency	activity, negative = inhibition
COCC(=O)Nc1ccc(N(C)C)cc1	inconclusive: 31.6 µM [inhibitor, single point]	–
CCN(CC)Cc1cc(O)c(CN(CC)CC)cc1O	active: 11.2 µM	–
Cc1cc(C)c2c(=O)c3c(oc2c1)C(=O)N(CCCOC(C)C)C3c1ccccc1F (stereo not drawn)	inactive	–
CN(CCCNC(=O)c1cccc(N2CCCC2=O)c1)c1ccccc1	inconclusive: 20 µM [inhibitor, partial curve]	–
CCOc1cccc2cc(-c3nnc(NCc4ccco4)s3)c(=O)oc12	inconclusive: 14.1 µM [inhibitor, partial curve]	–
COc1ccc(N2CCN(C(=O)c3cccc(Br)c3)CC2)c([N+](=O)[O-])c1	inconclusive: 25.1 µM [inhibitor, single point]	–
CC(=O)Nc1ccc(C(=O)CSc2nnnn2C2CCCC2)cc1	inactive	–
Cc1ccc(NC(NC(=O)c2cccs2)C(Cl)(Cl)Cl)cc1 (stereo not drawn)	inconclusive: 39.8 µM [inhibitor, single point]	–
O=[N+]([O-])c1cc(/C=N/Nc2nc3ccccc3[nH]2)c(O)cc1O	inconclusive: 35.5 µM [inhibitor, single point]	–
CC(C)CCNC(=O)C(c1ccc(O)cc1)N(C(=O)C1COc2ccccc2O1)c1cccc(O)c1 (stereo not drawn)	inactive	–
CC[N+](C)(CC)CC(=O)Nc1c(C)cccc1C	inactive	–
COc1ccc(NC(=O)/C=C/c2cc(Br)ccc2OC)cc1	inconclusive: 8.91 µM [inhibitor, partial curve]	–
Nc1c(Cl)ncnc1N/N=C/c1ccccn1	inconclusive: 22.4 µM [inhibitor, partial curve]	–
CCOc1ccc(NC(=O)c2c(NCc3cc(OC)c(OC)cc3OC)sc3c2CCCC3)cc1	inconclusive: 12.6 µM [inhibitor, partial curve]	–
O=C(Nc1ccc(OC(F)F)c(Cl)c1)c1ccccn1	inconclusive: 3.55 µM [inhibitor, full curve]	–
CCn1c(C)[n+](CCOC(C)=O)c2cc(Cl)c(Cl)cc21	inactive	–
Cc1ccc2nc(Nc3nc(-c4ccccc4)cc(=O)[nH]3)nc(C)c2c1	inconclusive: 6.31 µM [inhibitor, partial curve]	–
Cc1cc(C)cc(OCC(=O)N2CCC(c3nc4ccccc4o3)CC2)c1	inactive	–
CC1(C)C(=O)C(c2ccccc2)=C2CN3C(=O)N(CCc4ccccc4)C(=O)C3(Cc3ccc(C(F)(F)F)cc3)C=C21 (stereo not drawn)	inconclusive: 4.47 µM [inhibitor, full curve, poor fit]	–
COc1ccccc1NC(=O)/C=C/C(N)=O	inconclusive: 15.8 µM [inhibitor, partial curve]	–
Cc1ccc(Nc2cc(C)nn2-c2nc(C)cc(C)n2)cc1	inconclusive: 28.2 µM [inhibitor, single point]	–
COC(=O)NC(c1ccccc1)C(C#N)C(=O)OC (stereo not drawn)	–	inactive: -3.35% [at 11.5 µM]
C=CCOc1c(OC)cc(/C=N/Nc2cccc(C(=O)O)c2)c(Br)c1Br	inconclusive: 14.1 µM [inhibitor, partial curve]	–
NC(=S)N=Nc1c(O)[nH]c2c(Br)cc(Br)cc12	active: 7.94 µM	–
Cc1ccc(Cc2nc3ccccc3nc2SCC(=O)N2CCN(c3ccc(F)cc3)CC2)cc1	inconclusive: 20 µM [inhibitor, single point]	–

SMILES	Potency	activity, negative = inhibition
COc1ccc(CNC(=O)Cc2ccc(NC(=O)N3CCSc4ncccc43)cc2)cc1	inactive	–
Cc1ccccc1C(=O)NC(=S)Nc1ccccc1C(F)(F)F	inactive	–
O=C(c1cc(-c2ccco2)nc2ccccc12)N1CCN(c2ccc(F)cc2)CC1	inactive	–
c1ccc2c(c1)CCN(c1nc(CN3CCOCC3)nc3sc4c(c13)CCCC4)C2	inconclusive: 35.5 µM [inhibitor, single point]	–
O=C1C=C(N2CCOCC2)C2(CCCCC2)O1	inconclusive: 6.31 µM [inhibitor, full curve]	–
O=C(Oc1ccc([N+](=O)[O-])cc1)c1cc(-c2ccccc2)nc2ccccc12	inconclusive: 39.8 µM [inhibitor, single point]	–
COc1cc(CNc2ncnc3c2[nH]c2ccc(C)cc23)cc(OC)c1	inactive	–
Cc1ccc2nc(NC(=O)CSc3ncc(C(=O)Nc4ccc(F)cc4)c(=O)n3C)sc2c1	inconclusive: 25.1 µM [inhibitor, partial curve]	–
COCCn1cc(C(=O)NCc2cccs2)c2c3ccccc3n(C)c2c1=O	inconclusive: 22.4 µM [inhibitor, partial curve]	–
COc1ccc(C2CC(=O)c3c(C)nc(N4CCN(Cc5ccccc5)CC4)nc3C2)cc1OC (stereo not drawn)	inactive	–
CCCN(CCC)CC(O)Cn1cc(/C=C/C(=O)c2ccc(Br)cc2)c2ccccc21 (stereo not drawn)	inconclusive: 8.91 µM [inhibitor, partial curve]	–
Cc1ccc(Cl)c(NC(=O)COC(=O)c2ccccc2C(=O)c2ccc(Cl)c([N+](=O)[O-])c2)c1Cl	inconclusive: 8.91 µM [inhibitor, partial curve]	–
Nc1[nH][nH]c(=O)c1N=Nc1cccc(Cl)c1	inconclusive: 17.8 µM [inhibitor, partial curve]	–
Cc1cc(Cl)n2c(nc3cc(F)c(F)cc32)c1C#N	inconclusive: 31.6 µM [inhibitor, single point]	–
COc1ccc(-c2nnn(CC(=O)NCc3ccccc3)n2)cc1OC	inactive	–
CCN(CC)c1ccc(/C=C2/C(=O)c3ccc(C(=O)O)cc3C2=O)cc1	active: 3.16 µM	–
S=C(NCCc1ccccc1)Nc1cccc2cnccc12	inconclusive: 39.8 µM [inhibitor, single point]	–
COc1cccc(/C=N/Nc2ccc(S(=O)(=O)O)cc2)c1O	inconclusive: 28.2 µM [inhibitor, single point]	–
CCOc1ccc(-c2nnc(-c3ccc(OC)cc3)o2)cc1	inactive	–
Cc1ccc(CN2CCN(C3CCNCC3)C(=O)C2=O)cc1	inactive	–
COc1ccc(N=c2cc(-c3ccc(O)cc3)oc3ccccc23)cc1	inconclusive: 28.2 µM [inhibitor, partial curve]	–
Cc1ccc(C)c(N2CCN(C(c3ccc(N(C)C)cc3)c3nnnn3C(C)(C)C)CC2)c1 (stereo not drawn)	inconclusive: 10 µM [inhibitor, partial curve]	–
CCOC(=O)C1C(=O)C=C(c2ccc(C)cc2)CC1c1ccco1 (stereo not drawn)	inconclusive: 20 µM [inhibitor, single point]	–
Cc1nc2sc(C(c3ccco3)N3CCC(C)CC3)c(O)n2n1 (stereo not drawn)	inactive	–
CCOC(=O)c1[nH]c2ccc(OC)cc2c1NC(=O)CN1CCc2ccccc2C1	inconclusive: 39.8 µM [inhibitor, single point]	–

SMILES	Potency	activity, negative = inhibition
COc1ccc(C(=O)/C=C/Nc2c(C)n(C)n(-c3ccccc3)c2=O)cc1OC	inconclusive: 31.6 µM [inhibitor, single point]	–
CCC(C(=O)N1CCN(c2cc(C)ccc2C)CC1)n1nc(C)n2c(cc3occc32)c1=O (stereo not drawn)	inconclusive: 12.6 µM [inhibitor, single point]	–
Cc1ccc2nc(COc3ccc(N(C)S(=O)(=O)c4ccccc4)cc3)cc(=O)n2c1	inconclusive: 31.6 µM [inhibitor, single point]	–
CSc1nc(C)cc(SC(C(C)=O)C(=O)Nc2ccccc2)n1 (stereo not drawn)	inconclusive: 35.5 µM [inhibitor, single point]	–
COc1ccc(/C=N/N=C2/CC(C)(C)Cc3n[nH]c(=O)cc32)cc1	inconclusive: 20 µM [inhibitor, partial curve]	–
COCCNC(C)C(=O)Nc1ccc(Br)cc1 (stereo not drawn)	inactive	–
COc1cc(-c2ccccc2)nc2ccccc12	inactive	–
COc1ccc2cc(C(c3nnnn3Cc3ccccc3)N3CCCCCC3)c(=O)[nH]c2c1 (stereo not drawn)	inconclusive: 22.4 µM [inhibitor, partial curve]	–
CCNc1ccc(C(=O)OCC(=O)NC(C)c2ccccc2)cc1[N+](=O)[O-] (stereo not drawn)	inconclusive: 12.6 µM [inhibitor, partial curve]	–
CCn1c(-c2ccccc2O)n[nH]c1=S	inactive	–
O=C(NCc1cccs1)C1CCN(C(=O)N2CCOc3ccc(Cl)cc32)CC1	inactive	–
CC(=O)N1CCC2(CC1)C(C#N)=C(N)Oc1n[nH]c(C(F)(F)F)c12	inconclusive: 15.8 µM [inhibitor, partial curve]	–
Cc1ccc(Sc2nc(-c3ccccc3)nnc2C(F)(F)F)cc1	inconclusive: 25.1 µM [inhibitor, partial curve]	–
O=C(/C(=C/O)N=Nc1ccccc1)c1cccs1	active: 28.2 µM	–
CNS(=O)(=O)c1cn(CC(=O)Nc2ccc(C(C)=O)cc2)cc1S(=O)(=O)NC	inactive	–
O=C(O)c1ccc(Nc2cc(Cl)c3nonc3c2[N+](=O)[O-])cc1	active: 7.08 µM	–
CCOC(=O)/C(C#N)=C1\SS/C(=C(/C#N)C(=O)OCC)S1	active: 2.82 µM	–
CCOC(=O)c1ccc(NC(=O)CCS(=O)(=O)c2ccc(Br)s2)cc1	inactive	–
CCN(CC)c1cc(NCCO)c([N+](=O)[O-])c2nonc12	inconclusive: 15.8 µM [inhibitor, partial curve]	–
Cn1cccc1C(=O)C(=O)Nc1ccc(Cl)cc1	inconclusive: 14.1 µM [inhibitor, partial curve, poor fit]	–
O=C1c2ccccc2CC1Sc1nnc(-c2ccccn2)o1 (stereo not drawn)	inconclusive: 35.5 µM [inhibitor, partial curve]	–
COc1ccccc1N=Cc1c(O)c2ccccc2oc1=O	inactive	–
COc1ccccc1NC(=S)Nc1cccc2cnccc12	inconclusive: 31.6 µM [inhibitor, single point]	–

Reference: PubChem BioAssay AID1460 (National Center for Advancing Translational Sciences (NCATS), 2008)
